# From the supplement of paper PMC8728848
# The other results are listed elsewhere or left out.
# B1: TIM1 (protein)
# chain: ADGIQSVKVGGEAGPSVTLPCHYSGAVTSMCWNRGSCSLFTCQNGIVWTNGTHVTYRKDTRYKLLGDLSRRDVSLTIENTAVSDSGVYCCRVEHRGWFNDMKITVSLEIVPPHHHHHH
# Assays:
# Experiment in all cases: glycan array binding signal (z-score within array); higher = stronger binding
# Settings in all cases: glycan notation: IUPAC condensed, linker removed
# Neu5Ac(a2-3)GalNAc = biological target: Neu5Ac(a2-3)GalNAc
# How it was run: (§1)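 Glycan array data were curated from 3228 arrays in the Consortium for Functional Glycomics database and kept only where the protein sequence was available. Glycan names were converted to IUPAC-condensed notation, and columns mapping to the same glycan were averaged. The binding signal is a within-array Z-score, averaged across arrays of the same protein sequence at different concentrations or buffers and across linkers. Negative Z-scores can be read as non-binding.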
# [1] = biological target: Neu5Ac(a2-3)GalNAc(b1-4)GlcNAc
# How it was run: as §1
# [2] = biological target: Neu5Ac(a2-3)[GalNAc(b1-4)]Gal(b1-4)Glc
# How it was run: as §1
# [3] = biological target: Neu5Ac(a2-3)[GalNAc(b1-4)]Gal(b1-4)GlcNAc
# How it was run: as §1
# [4] = biological target: Neu5Ac(a2-3)[GalNAc(b1-4)]Gal(b1-4)GlcNAc(b1-3)GalNAc
# How it was run: as §1
# [5] = biological target: Neu5Ac(a2-3)[Neu5Ac(a2-6)]GalNAc
# How it was run: as §1
# Neu5Ac(a2-6)Gal = biological target: Neu5Ac(a2-6)Gal
# How it was run: as §1
# [6] = biological target: Neu5Ac(a2-6)Gal(b1-3)GlcNAc(b1-3)[Gal(b1-4)GlcNAc(b1-6)]Gal(b1-4)Glc
# How it was run: as §1
# Neu5Ac(a2-6)Gal(b1-4)Glc = biological target: Neu5Ac(a2-6)Gal(b1-4)Glc
# How it was run: as §1
# [7] = biological target: Neu5Ac(a2-6)Gal(b1-4)GlcNAc
# How it was run: as §1
# [8] = biological target: Neu5Ac(a2-6)Gal(b1-4)GlcNAc(b1-2)Man
# How it was run: as §1
# [9] = biological target: Neu5Ac(a2-6)Gal(b1-4)GlcNAc(b1-2)Man(a1-3)Man(b1-4)GlcNAc(b1-4)GlcNAc
# How it was run: as §1
# [10] = biological target: Neu5Ac(a2-6)Gal(b1-4)GlcNAc(b1-2)Man(a1-3)[Gal(b1-4)GlcNAc(b1-2)Man(a1-6)]Man(b1-4)GlcNAc(b1-4)GlcNAc
# How it was run: as §1
# [11] = biological target: Neu5Ac(a2-6)Gal(b1-4)GlcNAc(b1-2)Man(a1-3)[GlcNAc(b1-2)Man(a1-6)]Man(b1-4)GlcNAc(b1-4)GlcNAc
# How it was run: as §1
# [12] = biological target: Neu5Ac(a2-6)Gal(b1-4)GlcNAc(b1-2)Man(a1-3)[GlcNAc(b1-4)][Neu5Ac(a2-6)Gal(b1-4)GlcNAc(b1-2)Man(a1-6)]Man(b1-4)GlcNAc(b1-4)GlcNAc
# How it was run: as §1
# [13] = biological target: Neu5Ac(a2-6)Gal(b1-4)GlcNAc(b1-2)Man(a1-3)[Man(a1-6)]Man(b1-4)GlcNAc(b1-4)GlcNAc
# How it was run: as §1
# [14] = biological target: Neu5Ac(a2-6)Gal(b1-4)GlcNAc(b1-2)Man(a1-3)[Neu5Ac(a2-3)Gal(b1-4)GlcNAc(b1-2)Man(a1-6)]Man(b1-4)GlcNAc(b1-4)GlcNAc
# How it was run: as §1
# [15] = biological target: Neu5Ac(a2-6)Gal(b1-4)GlcNAc(b1-2)Man(a1-3)[Neu5Ac(a2-6)Gal(b1-4)GlcNAc(b1-2)Man(a1-6)]Man(b1-4)GlcNAc(b1-4)GlcNAc
# How it was run: as §1
# [16] = biological target: Neu5Ac(a2-6)Gal(b1-4)GlcNAc(b1-2)Man(a1-3)[Neu5Ac(a2-6)Gal(b1-4)GlcNAc(b1-2)Man(a1-6)]Man(b1-4)GlcNAc(b1-4)[Fuc(a1-6)]GlcNAc
# How it was run: as §1
# [17] = biological target: Neu5Ac(a2-6)Gal(b1-4)GlcNAc(b1-2)Man(a1-6)Man(b1-4)GlcNAc(b1-4)GlcNAc
# How it was run: as §1
# [18] = biological target: Neu5Ac(a2-6)Gal(b1-4)GlcNAc(b1-2)Man(a1-6)[Gal(b1-4)GlcNAc(b1-2)Man(a1-3)]Man(b1-4)GlcNAc(b1-4)GlcNAc
# How it was run: as §1
# [19] = biological target: Neu5Ac(a2-6)Gal(b1-4)GlcNAc(b1-2)Man(a1-6)[GlcNAc(b1-2)Man(a1-3)]Man(b1-4)GlcNAc(b1-4)GlcNAc
# How it was run: as §1
# [20] = biological target: Neu5Ac(a2-6)Gal(b1-4)GlcNAc(b1-2)Man(a1-6)[Man(a1-3)]Man(b1-4)GlcNAc(b1-4)GlcNAc
# How it was run: as §1
# [21] = biological target: Neu5Ac(a2-6)Gal(b1-4)GlcNAc(b1-2)[Neu5Ac(a2-6)Gal(b1-4)GlcNAc(b1-4)]Man(a1-3)[GlcNAc(b1-4)][Neu5Ac(a2-6)Gal(b1-4)GlcNAc(b1-2)[Neu5Ac(a2-6)Gal(b1-4)GlcNAc(b1-6)]Man(a1-6)]Man(b1-4)GlcNAc(b1-4)GlcNAc
# How it was run: as §1
# [22] = biological target: Neu5Ac(a2-6)Gal(b1-4)GlcNAc(b1-2)[Neu5Ac(a2-6)Gal(b1-4)GlcNAc(b1-4)]Man(a1-3)[GlcNAc(b1-4)][Neu5Ac(a2-6)Gal(b1-4)GlcNAc(b1-4)Man(a1-6)]Man(b1-4)GlcNAc(b1-4)GlcNAc
# How it was run: as §1
# [23] = biological target: Neu5Ac(a2-6)Gal(b1-4)GlcNAc(b1-2)[Neu5Ac(a2-6)Gal(b1-4)GlcNAc(b1-6)]Man(a1-6)[Neu5Ac(a2-6)Gal(b1-4)GlcNAc(b1-2)Man(a1-3)][GlcNAc(b1-4)]Man(b1-4)GlcNAc(b1-4)GlcNAc
# How it was run: as §1
# [24] = biological target: Neu5Ac(a2-6)Gal(b1-4)GlcNAc(b1-3)Gal(b1-3)GlcNAc
# How it was run: as §1
# [25] = biological target: Neu5Ac(a2-6)Gal(b1-4)GlcNAc(b1-3)Gal(b1-4)GlcNAc
# How it was run: as §1
# [26] = biological target: Neu5Ac(a2-6)Gal(b1-4)GlcNAc(b1-3)Gal(b1-4)GlcNAc(b1-2)Man(a1-3)[Neu5Ac(a2-6)Gal(b1-4)GlcNAc(b1-3)Gal(b1-4)GlcNAc(b1-2)Man(a1-6)]GalNAc
# How it was run: as §1
# [27] = biological target: Neu5Ac(a2-6)Gal(b1-4)GlcNAc(b1-3)Gal(b1-4)GlcNAc(b1-3)Gal(b1-4)GlcNAc
# How it was run: as §1
# [28] = biological target: Neu5Ac(a2-6)Gal(b1-4)GlcNAc(b1-3)Gal(b1-4)GlcNAc(b1-3)Gal(b1-4)GlcNAc(b1-2)Man(a1-3)[Neu5Ac(a2-6)Gal(b1-4)GlcNAc(b1-3)Gal(b1-4)GlcNAc(b1-3)Gal(b1-4)GlcNAc(b1-2)Man(a1-6)]GalNAc
# How it was run: as §1
# [29] = biological target: Neu5Ac(a2-6)Gal(b1-4)GlcNAc(b1-3)Gal(b1-4)GlcNAc(b1-3)GalNAc
# How it was run: as §1
# [30] = biological target: Neu5Ac(a2-6)Gal(b1-4)GlcNAc(b1-3)Gal(b1-4)GlcNAc(b1-3)[Neu5Ac(a2-6)Gal(b1-4)GlcNAc(b1-3)Gal(b1-4)GlcNAc(b1-6)]GalNAc
# How it was run: as §1
# [31] = biological target: Neu5Ac(a2-6)Gal(b1-4)GlcNAc(b1-3)Gal(b1-4)GlcNAc(b1-6)[Gal(b1-3)]GalNAc
# How it was run: as §1
# [32] = biological target: Neu5Ac(a2-6)Gal(b1-4)GlcNAc(b1-3)Gal(b1-4)[Fuc(a1-3)]GlcNAc(b1-3)Gal(b1-4)[Fuc(a1-3)]GlcNAc
# How it was run: as §1
# [33] = biological target: Neu5Ac(a2-6)Gal(b1-4)GlcNAc(b1-3)GalNAc
# How it was run: as §1
# [34] = biological target: Neu5Ac(a2-6)Gal(b1-4)GlcNAc(b1-3)[Neu5Ac(a2-6)Gal(b1-4)GlcNAc(b1-6)]GalNAc
# How it was run: as §1
# [35] = biological target: Neu5Ac(a2-6)Gal(b1-4)GlcNAc(b1-6)GalNAc
# How it was run: as §1
# [36] = biological target: Neu5Ac(a2-6)Gal(b1-4)GlcNAc(b1-6)[Gal(b1-3)GlcNAc(b1-3)]Gal(b1-4)Glc
# How it was run: as §1
# [37] = biological target: Neu5Ac(a2-6)Gal(b1-4)GlcNAc(b1-6)[Gal(b1-3)]GalNAc
# How it was run: as §1
# [38] = biological target: Neu5Ac(a2-6)Gal(b1-4)GlcNAc6S
# How it was run: as §1
# Neu5Ac(a2-6)GalNAc = biological target: Neu5Ac(a2-6)GalNAc
# How it was run: as §1
# [39] = biological target: Neu5Ac(a2-6)GalNAc(b1-4)GlcNAc
# How it was run: as §1
# [40] = biological target: Neu5Ac(a2-6)GalNAc(b1-4)GlcNAc6S
# How it was run: as §1
# [41] = biological target: Neu5Ac(a2-6)GlcNAc(b1-4)GlcNAc
# How it was run: as §1
binder,measurement,setting,value
B1,glycan array binding signal (z-score),Neu5Ac(a2-3)GalNAc,-0.23
same,glycan array binding signal (z-score),[1],-0.235
same,glycan array binding signal (z-score),[2],-0.199
same,glycan array binding signal (z-score),[3],-0.182
same,glycan array binding signal (z-score),[4],0.098
same,glycan array binding signal (z-score),[5],-0.255
same,glycan array binding signal (z-score),Neu5Ac(a2-6)Gal,-0.174
same,glycan array binding signal (z-score),[6],-0.254
same,glycan array binding signal (z-score),Neu5Ac(a2-6)Gal(b1-4)Glc,-0.204
same,glycan array binding signal (z-score),[7],-0.238
same,glycan array binding signal (z-score),[8],-0.271
same,glycan array binding signal (z-score),[9],-0.192
same,glycan array binding signal (z-score),[10],-0.085
same,glycan array binding signal (z-score),[11],-0.243
same,glycan array binding signal (z-score),[12],-0.194
same,glycan array binding signal (z-score),[13],0.175
same,glycan array binding signal (z-score),[14],-0.264
same,glycan array binding signal (z-score),[15],-0.229
same,glycan array binding signal (z-score),[16],-0.14
same,glycan array binding signal (z-score),[17],-0.213
same,glycan array binding signal (z-score),[18],-0.24
same,glycan array binding signal (z-score),[19],-0.239
same,glycan array binding signal (z-score),[20],-0.179
same,glycan array binding signal (z-score),[21],-0.245
same,glycan array binding signal (z-score),[22],-0.238
same,glycan array binding signal (z-score),[23],-0.275
same,glycan array binding signal (z-score),[24],-0.224
same,glycan array binding signal (z-score),[25],-0.184
same,glycan array binding signal (z-score),[26],1.3
same,glycan array binding signal (z-score),[27],-0.266
same,glycan array binding signal (z-score),[28],5.74
same,glycan array binding signal (z-score),[29],-0.194
same,glycan array binding signal (z-score),[30],0.734
same,glycan array binding signal (z-score),[31],0.088
same,glycan array binding signal (z-score),[32],-0.236
same,glycan array binding signal (z-score),[33],-0.109
same,glycan array binding signal (z-score),[34],-0.168
same,glycan array binding signal (z-score),[35],-0.152
same,glycan array binding signal (z-score),[36],-0.137
same,glycan array binding signal (z-score),[37],-0.075
same,glycan array binding signal (z-score),[38],-0.209
same,glycan array binding signal (z-score),Neu5Ac(a2-6)GalNAc,-0.199
same,glycan array binding signal (z-score),[39],-0.239
same,glycan array binding signal (z-score),[40],-0.183
same,glycan array binding signal (z-score),[41],-0.28
